# Measurements taken from paper PMC4336329 (PLoS ONE, 2015).
# The campaign covered roughly 310,000 compounds. About 2,200 (0.71%) showed an effect of 50% or more. The effect is printed as a negative number. The list shows a part of the results.
# Target: human ether-à-go-go-related gene (hERG) potassium channel (human, UniProt Q12809)
# Experiment: primary screen, population patch clamp on CHO cells stably expressing hERG
# Sequence of human ether-à-go-go-related gene (hERG) potassium channel (Q12809 whole entry, looked up): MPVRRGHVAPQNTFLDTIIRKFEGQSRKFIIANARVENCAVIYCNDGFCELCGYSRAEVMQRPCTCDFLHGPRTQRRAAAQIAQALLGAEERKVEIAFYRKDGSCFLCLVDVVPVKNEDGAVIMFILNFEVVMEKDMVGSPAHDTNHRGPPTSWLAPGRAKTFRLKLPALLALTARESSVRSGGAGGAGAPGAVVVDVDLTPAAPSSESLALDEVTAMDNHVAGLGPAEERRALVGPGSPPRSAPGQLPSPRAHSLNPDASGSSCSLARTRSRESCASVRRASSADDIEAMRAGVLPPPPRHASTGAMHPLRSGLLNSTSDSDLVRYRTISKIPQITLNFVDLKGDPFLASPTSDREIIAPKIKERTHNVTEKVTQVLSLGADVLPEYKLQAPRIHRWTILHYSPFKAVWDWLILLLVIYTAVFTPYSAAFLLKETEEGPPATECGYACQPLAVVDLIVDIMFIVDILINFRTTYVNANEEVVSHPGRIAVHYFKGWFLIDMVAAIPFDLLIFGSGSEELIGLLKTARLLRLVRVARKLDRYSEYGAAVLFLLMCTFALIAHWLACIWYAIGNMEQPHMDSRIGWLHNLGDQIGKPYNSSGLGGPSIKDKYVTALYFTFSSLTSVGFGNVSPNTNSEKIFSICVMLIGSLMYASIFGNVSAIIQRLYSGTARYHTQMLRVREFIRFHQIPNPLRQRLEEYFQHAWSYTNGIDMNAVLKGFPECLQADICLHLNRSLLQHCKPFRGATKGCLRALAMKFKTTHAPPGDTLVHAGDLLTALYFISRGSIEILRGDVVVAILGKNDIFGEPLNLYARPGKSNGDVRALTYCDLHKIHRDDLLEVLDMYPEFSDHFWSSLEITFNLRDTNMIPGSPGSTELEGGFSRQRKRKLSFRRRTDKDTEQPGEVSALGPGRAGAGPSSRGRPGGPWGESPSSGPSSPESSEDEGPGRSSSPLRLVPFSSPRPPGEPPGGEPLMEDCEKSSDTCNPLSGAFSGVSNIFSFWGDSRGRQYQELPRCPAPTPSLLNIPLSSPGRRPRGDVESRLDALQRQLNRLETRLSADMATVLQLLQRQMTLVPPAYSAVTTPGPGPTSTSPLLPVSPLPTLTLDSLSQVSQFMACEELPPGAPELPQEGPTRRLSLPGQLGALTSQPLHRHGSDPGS
row,Structure (SMILES),"hERG current change (%, negative = inhibition) at 1uM"
1,O=C(c1cccn2c(=O)c3cc(Br)ccc3nc12)N1CCC2(CC1)OCCO2,-14.2%
2,Cc1ccc(-c2c[n+](CC(=O)Nc3ccccc3)c3n2CCC3)cc1.[Cl-],-3.82%
3,O=C(Nc1nccs1)C1CCN(S(=O)(=O)c2cccs2)CC1,1.86%
4,Cl.O=C(NCCCn1ccnc1)c1cccc(S(=O)(=O)N2CCCCCC2)c1,-1.53%
5,CC(C)(Oc1ccc(C2CC2(Cl)Cl)cc1)C(=O)O (centres unmarked),5.75%
6,CC(=O)Nc1ccc(NC(=O)C2CCCCC2C(=O)O)cc1 (centres unmarked),7.1%
7,CCOC(=O)c1c(NC(=O)C2=C(C)NC(=S)NC2c2ccc(F)cc2)sc(C)c1C (centres unmarked),3.08%
8,O=C(NCCc1c[nH]c2ccccc12)N[C@@H](Cc1ccccc1)C(=O)O,6%
9,O=C(NCc1ccccc1Cl)c1nnc(CS(=O)(=O)c2ccccc2)o1,-4.42%
10,CCOC(=O)CCC(=O)NNC(=O)c1ccc(NC(=O)c2ccccc2)cc1,5.93%
11,COc1ccc(OCCn2c(=O)sc3ccccc32)cc1,4.32%
12,Fc1ccc(NCc2nnc3n2CCCCC3)cc1,27.4%
13,CC(C)c1ccc(NC(=O)/C(C#N)=C/c2ccncc2)cc1,-16.4%
14,CCn1c(-c2cc(-c3ccccc3)sc2N)n[nH]c1=S,11.7%
15,CCc1ccc(-c2c(C)sc(NC(C)=O)c2C(N)=O)cc1,4.69%
16,O=C(/C=C/c1cccs1)N1CCN(Cc2ccc3c(c2)OCO3)CC1,-2.69%
17,CC(C)(C)NC(=O)CN(CCc1ccccc1)C(=O)c1csnn1,16.6%
18,C1=C(CCNC2=NCCCCC2)CCCC1,7.91%
19,COc1ccc(NC(=O)c2nc[nH]c2C(=O)N2CCN(c3ccccc3)CC2)cc1,12.3%
20,COc1cccc(CNC(=O)C(C(=O)NCc2cccc(OC)c2)c2ncc(C(F)(F)F)cc2Cl)c1,7.98%
21,COc1ccc(NS(=O)(=O)c2c(C(=O)N3CCCCCC3)c(C)n(C)c2C)cc1,16%
22,COc1ccc(CCNC2CCCCC2)cc1.O=C(O)C(=O)O,9.63%
23,COC(=O)c1cc(=O)n2c(sc3ccccc32)c1C#N,14.4%

row,Structure (SMILES),"hERG current change (%, negative = inhibition) at 1uM"
1,C=CCc1c(Cl)nc(C)nc1NCc1ccccc1,14.1%
2,Cc1ccc(NNC(=O)c2ccc(Cl)cc2)nn1,15%
3,O=c1c2sccc2[nH]c(=S)n1-c1ccccc1,6.19%
4,COc1cc(OC)c(C(=O)NCc2cccnc2)cc1OC,7.5%
5,Cc1ccc(N2CC(C(=O)NCCS(=O)(=O)N3CCN(c4ccccc4)CC3)CC2=O)cc1C (centres unmarked),1.93%
6,CNC(=S)N1N=C(c2ccc(Br)cc2)CC1c1ccc(Br)cc1 (centres unmarked),4.69%
7,CCCNS(=O)(=O)c1ccc(CCC(=O)NCC2CCCO2)cc1 (centres unmarked),13.5%
8,CSCCC(NC(=O)c1ccccc1Br)C(=O)NNC(=O)c1ccco1 (centres unmarked),14.9%
9,CC1CCCN(c2cc(N(C)CCO)c([N+](=O)[O-])c3nonc23)C1 (centres unmarked),16%
10,Cc1ccc(C)c(Nc2ccc(C(=O)NCCc3ccccc3)cn2)c1,10.7%
11,Cc1cc(C(F)F)n2nc(C(=O)Nc3cccnc3Cl)nc2n1,15.4%
12,Cc1nc(Cc2nnc(SCC(=O)N(C)c3ccccc3)o2)cs1,13.8%
13,COCCNC(=O)CN1CCC(NC(=O)Nc2ccccc2)CC1,1.27%
14,CC1(OC(=O)C2CCCC2)C(=O)C=C2C=C(c3ccc(C#N)cc3)OC=C2C1=O (centres unmarked),12.1%
15,COCc1ccc(CN2CCCC(CCC(=O)NCc3cccc(OC)c3)C2)o1 (centres unmarked),11%
16,COc1cccc(C(=O)N(CN2CCCC2=O)c2cccc(Cl)c2)c1,-3.23%
17,CCOC(=O)Cn1c(=O)oc2cc(S(=O)(=O)NC3CCCc4ccccc43)ccc21 (centres unmarked),7.9%
18,O=C(CN1C(=O)NC2(CCCC2)C1=O)Nc1nc2ccccc2[nH]1,11.6%
19,CCc1ccc(C(=O)OCC(=O)NCCNC(=O)COC(=O)c2ccc(CC)cc2)cc1,10.8%
20,Cc1nn(CC(=O)Nc2c(C)n(C)n(-c3ccccc3)c2=O)c(C)c1[N+](=O)[O-],8.99%
21,COc1ccc(NC(=S)NC(=O)Cc2ccccc2)c(OC)c1,15.2%
22,CC1CCCCC1NC(=O)c1ccc(S(=O)(=O)N2CCCC2)cc1 (centres unmarked),13.2%
23,CC1(C(=O)NC(=S)N(Cc2ccccc2)c2ccccn2)CC1(Cl)Cl (centres unmarked),12.4%

row,Structure (SMILES),"hERG current change (%, negative = inhibition) at 1uM"
1,COc1ccc(C(=O)NNC(=O)CN2CCC(n3nnc4cc(C(F)(F)F)ccc43)CC2)cc1,1.94%
2,c1ccc(-c2noc(-c3ccccc3-c3ccccc3)n2)cc1,12.5%
3,CCOc1cc(C2C(C(=O)OC)=C(C)N=C3SC(C)C(=O)N32)ccc1OC(C)=O (centres unmarked),1.43%
4,Nn1c(SCC(=O)NCCN2C(=O)CSC2=O)nnc1-c1ccc(OC(F)F)cc1,20.3%
5,CCOC(=O)CN1N=C(c2ccc(C)cc2)CCC1=O,-9.75%
6,CC(C)N1C(=O)c2ccc(C(=O)O)cc2C1=O,3.86%
7,CC(O)CNc1nc2c(c(=O)n(C)c(=O)n2C)n1Cc1cccc(Br)c1 (centres unmarked),2.69%
8,Cc1cc(NC(=O)NC(=O)c2ccccc2F)no1,18.2%
9,COC(=O)c1cc(S(=O)(=O)NCC2CCN(Cc3ccc(Cl)cc3)CC2)cn1C,0.856%
10,C/C(=N\NC(=O)Cc1csc(N2CCOCC2)n1)c1ccccc1,-13.8%
11,CC(=O)NC(CCS(C)(=O)=O)C(=O)Nc1cc(C)on1 (centres unmarked),7.45%
12,CCOC(=O)c1sc(=S)n(-c2ccc(OC)cc2)c1C,8%
13,CC(=O)Nc1ccc(NC(=O)CSc2nnc(NC(=O)C3CC(=O)N(c4ccc(F)cc4)C3)s2)cc1 (centres unmarked),7.39%
14,Cc1ccc(/C=N/NC(=O)C2=NNC(c3ccccc3)(c3ccccc3)C2)c(O)c1,-9.69%
15,CCc1ccc(CNCc2cccnc2)cc1,9.07%
16,CC(CCc1ccccc1)NCC(O)COc1ccccc1 (centres unmarked),-6.95%
17,CC1(C)NC(=O)N(CC(O)CN(c2ccccc2)S(=O)(=O)c2ccc([N+](=O)[O-])cc2)C1=O (centres unmarked),5.59%
18,O=C(CSc1nc2ccccc2o1)NCc1n[nH]c(=O)c2ccccc12,2.21%
19,CCOC(=O)c1cc2n(c1C)-c1ccccc1C2=O,8.74%
20,COC(=O)c1ccc(OC(=O)C2CSC3(C)CCC(=O)N23)cc1 (centres unmarked),4.79%
21,CN(C(=O)CS(=O)(=O)c1cn(CC(=O)N2CCOCC2)c2ccccc12)c1ccccc1,11.6%
22,Cn1ccnc1C(O)(c1nnc(-c2ccccc2)o1)C(F)(F)F (centres unmarked),17.8%
23,CC1(C)Cc2c(sc3c2C2=NCCN2C=N3)CO1.Cl,11.2%

row,Structure (SMILES),"hERG current change (%, negative = inhibition) at 1uM"
1,Cc1ccc(C(C(=O)NC(C)(C)C)N(CCCN2CCOCC2)C(=O)c2ccc(-c3ccccc3)[nH]2)o1 (centres unmarked),-0.731%
2,Cc1cc(C)c2c3c(sc2n1)C(=O)N(c1ccccc1)CC(=O)N3,14.4%
3,COc1cccc(CC(=O)NCC2COc3ccccc3O2)c1OC (centres unmarked),1.42%
4,CCOc1cc(C2NCc3ccccc3-n3cccc32)ccc1O.Cl (centres unmarked),-5.6%
5,O=C(CSc1nnc(NC(=O)c2c(F)cccc2F)s1)Nc1ccccc1F,9.35%
6,C=CCn1cc(/C=N/Nc2nc3ccccc3[nH]2)c2ccccc21,10.9%
7,CCCCc1ccc(NC=C2C(=O)OC3(CCCCC3)OC2=O)cc1,9.43%
8,Nc1c(C(=O)NCc2ccco2)c2nc3ccccc3nc2n1Cc1ccc(F)cc1,14.1%
9,Cc1ccc(C(c2nnnn2CC2CCCO2)N2CCN(C)CC2)cc1.Cl (centres unmarked),2.52%
10,O=C(OCc1nnc(-c2ccc(Br)cc2)o1)c1cncc(Br)c1,2.67%
11,Cc1ccc(C#N)c(SCc2cccc(Br)c2)n1,17.2%
12,CN1CCCN(C(=O)CC2(CC(=O)O)CCCCC2)CC1.Cl,15.6%
13,O=C(CSc1nccc(=O)[nH]1)N1CCOCC1,-1.47%
14,C=CCNC(=O)CCCOc1cc(C)ccc1C,-0.933%
15,Cn1c(CNC(=O)c2ccccc2F)cc2ccccc21,13.7%
16,CCOC(=O)c1cc2c(s1)-c1c(C)cccc1OC2,15.6%
17,CCc1cc(C(=O)c2ccc(OC)cc2)c(NC(=O)CC(C)(C)CC(=O)O)s1,11.1%
18,c1nc(N2CCOCC2)c2[nH]cnc2n1,9.82%
19,CC1CCN(CCCNS(=O)(=O)c2ccc3c(c2)CCN3C(=O)C2CC2)CC1,15.2%
20,CCn1ncc2c1C(=O)NC1c3ccccc3C(=O)N21 (centres unmarked),4.67%
21,O=C(NCC1CCCO1)c1cccc(NC(=O)c2ccccc2)c1 (centres unmarked),12.8%
22,CCOC(=O)CCCCC(=O)c1[nH]c(=O)[nH]c1CSCCO,8.47%
23,O=C(NCCCn1ccnc1)/C(=C\c1cccnc1)NC(=O)c1cccc(Br)c1,3.81%
